# Reference: the supplement of paper PMC8728848
# This is one part of the list.
# Tests used:
# Assay in all cases: glycan array binding signal (z-score within array); higher = stronger binding
# Settings in all cases: glycan notation: IUPAC condensed, linker removed
# Neu5Ac(a2-3)Gal = molecular target: Neu5Ac(a2-3)Gal
# In short: (§1)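 The Consortium for Functional Glycomics database supplied 3228 glycan arrays, of which those lacking an available protein sequence were dropped. The binding signal, a within-array Z-score, was averaged across arrays of the same protein sequence and across linkers. Negative scores can be read as non-binding.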
# [1] = molecular target: Neu5Ac(a2-3)Gal(b1-3)GalNAc
# In short: as §1
# [2] = molecular target: Neu5Ac(a2-3)Gal(b1-3)GalNAc(b1-3)Gal(a1-4)Gal(b1-4)Glc
# In short: as §1
# [3] = molecular target: Neu5Ac(a2-3)Gal(b1-3)GalNAc(b1-4)[Neu5Ac(a2-3)]Gal(b1-4)Glc
# In short: as §1
# [4] = molecular target: Neu5Ac(a2-3)Gal(b1-3)GalNAc(b1-4)[Neu5Ac(a2-8)Neu5Ac(a2-3)]Gal(b1-4)Glc
# In short: as §1
# [5] = molecular target: Neu5Ac(a2-3)Gal(b1-3)GalNAc6S
# In short: as §1
# [6] = molecular target: Neu5Ac(a2-3)Gal(b1-3)GlcNAc
# In short: as §1
# [7] = molecular target: Neu5Ac(a2-3)Gal(b1-3)GlcNAc(b1-2)Man
# In short: as §1
# [8] = molecular target: Neu5Ac(a2-3)Gal(b1-3)GlcNAc(b1-2)Man(a1-3)[GlcNAc(b1-4)][Neu5Ac(a2-3)Gal(b1-3)GlcNAc(b1-2)Man(a1-6)]Man(b1-4)GlcNAc(b1-4)GlcNAc
# In short: as §1
# [9] = molecular target: Neu5Ac(a2-3)Gal(b1-3)GlcNAc(b1-2)Man(a1-3)[Neu5Ac(a2-3)Gal(b1-3)GlcNAc(b1-2)Man(a1-6)]Man(b1-4)GlcNAc(b1-4)GlcNAc
# In short: as §1
# [10] = molecular target: Neu5Ac(a2-3)Gal(b1-3)GlcNAc(b1-3)Gal(b1-3)GlcNAc
# In short: as §1
# [11] = molecular target: Neu5Ac(a2-3)Gal(b1-3)GlcNAc(b1-3)Gal(b1-4)GlcNAc
# In short: as §1
# [12] = molecular target: Neu5Ac(a2-3)Gal(b1-3)GlcNAc(b1-3)GalNAc
# In short: as §1
# [13] = molecular target: Neu5Ac(a2-3)Gal(b1-3)GlcNAc(b1-4)Gal(b1-4)Glc
# In short: as §1
# [14] = molecular target: Neu5Ac(a2-3)Gal(b1-3)GlcNAc(b1-6)GalNAc
# In short: as §1
# [15] = molecular target: Neu5Ac(a2-3)Gal(b1-3)GlcNAc6S
# In short: as §1
# [16] = molecular target: Neu5Ac(a2-3)Gal(b1-3)[Fuc(a1-4)]GlcNAc
# In short: as §1
# [17] = molecular target: Neu5Ac(a2-3)Gal(b1-3)[Fuc(a1-4)]GlcNAc(b1-3)Gal(b1-3)[Fuc(a1-4)]GlcNAc
# In short: as §1
# [18] = molecular target: Neu5Ac(a2-3)Gal(b1-3)[Fuc(a1-4)]GlcNAc(b1-3)Gal(b1-4)[Fuc(a1-3)]GlcNAc
# In short: as §1
# [19] = molecular target: Neu5Ac(a2-3)Gal(b1-3)[GlcNAc(b1-6)]GalNAc
# In short: as §1
# [20] = molecular target: Neu5Ac(a2-3)Gal(b1-3)[Neu5Ac(a2-6)]GalNAc
# In short: as §1
# [21] = molecular target: Neu5Ac(a2-3)Gal(b1-3)[Neu5Ac(a2-6)]GlcNAc(b1-3)[Fuc(a1-3)[Gal(b1-4)]GlcNAc(b1-6)]Gal(b1-4)Glc
# In short: as §1
# [22] = molecular target: Neu5Ac(a2-3)Gal(b1-3)]Neu5Ac(a2-3)Gal(b1-4)]GlcNAc
# In short: as §1
# Neu5Ac(a2-3)Gal(b1-4)Glc = molecular target: Neu5Ac(a2-3)Gal(b1-4)Glc
# In short: as §1
# [23] = molecular target: Neu5Ac(a2-3)Gal(b1-4)GlcNAc
# In short: as §1
# [24] = molecular target: Neu5Ac(a2-3)Gal(b1-4)GlcNAc(b1-2)Man
# In short: as §1
# [25] = molecular target: Neu5Ac(a2-3)Gal(b1-4)GlcNAc(b1-2)Man(a1-3)[GlcNAc(b1-4)][Neu5Ac(a2-3)Gal(b1-4)GlcNAc(b1-2)Man(a1-6)]Man(b1-4)GlcNAc(b1-4)GlcNAc
# In short: as §1
# [26] = molecular target: Neu5Ac(a2-3)Gal(b1-4)GlcNAc(b1-2)Man(a1-3)[Neu5Ac(a2-3)Gal(b1-4)GlcNAc(b1-2)Man(a1-6)]Man(b1-4)GlcNAc(b1-4)GlcNAc
# In short: as §1
# [27] = molecular target: Neu5Ac(a2-3)Gal(b1-4)GlcNAc(b1-2)Man(a1-3)[Neu5Ac(a2-3)Gal(b1-4)GlcNAc(b1-2)Man(a1-6)]Man(b1-4)GlcNAc(b1-4)[Fuc(a1-6)]GlcNAc
# In short: as §1
# [28] = molecular target: Neu5Ac(a2-3)Gal(b1-4)GlcNAc(b1-2)Man(a1-3)[Neu5Ac(a2-6)Gal(b1-4)GlcNAc(b1-2)Man(a1-6)]Man(b1-4)GlcNAc(b1-4)GlcNAc
# In short: as §1
# [29] = molecular target: Neu5Ac(a2-3)Gal(b1-4)GlcNAc(b1-2)[Neu5Ac(a2-3)Gal(b1-4)GlcNAc(b1-4)]Man(a1-3)[GlcNAc(b1-4)][Neu5Ac(a2-3)Gal(b1-4)GlcNAc(b1-2)[Neu5Ac(a2-3)Gal(b1-4)GlcNAc(b1-6)]Man(a1-6)]Man(b1-4)GlcNAc(b1-4)GlcNAc
# In short: as §1
# [30] = molecular target: Neu5Ac(a2-3)Gal(b1-4)GlcNAc(b1-2)[Neu5Ac(a2-3)Gal(b1-4)GlcNAc(b1-4)]Man(a1-3)[GlcNAc(b1-4)][Neu5Ac(a2-3)Gal(b1-4)GlcNAc(b1-4)Man(a1-6)]Man(b1-4)GlcNAc(b1-4)GlcNAc
# In short: as §1
# [31] = molecular target: Neu5Ac(a2-3)Gal(b1-4)GlcNAc(b1-2)[Neu5Ac(a2-3)Gal(b1-4)GlcNAc(b1-6)]Man(a1-6)[Neu5Ac(a2-3)Gal(b1-4)GlcNAc(b1-2)Man(a1-3)]Man(b1-4)GlcNAc(b1-4)GlcNAc
# In short: as §1
# [32] = molecular target: Neu5Ac(a2-3)Gal(b1-4)GlcNAc(b1-2)[Neu5Ac(a2-3)Gal(b1-4)GlcNAc(b1-6)]Man(a1-6)[Neu5Ac(a2-3)Gal(b1-4)GlcNAc(b1-2)Man(a1-3)][GlcNAc(b1-4)]Man(b1-4)GlcNAc(b1-4)GlcNAc
# In short: as §1
# [33] = molecular target: Neu5Ac(a2-3)Gal(b1-4)GlcNAc(b1-3)Gal
# In short: as §1
# [34] = molecular target: Neu5Ac(a2-3)Gal(b1-4)GlcNAc(b1-3)Gal(b1-3)GlcNAc
# In short: as §1
# [35] = molecular target: Neu5Ac(a2-3)Gal(b1-4)GlcNAc(b1-3)Gal(b1-4)GlcNAc
# In short: as §1
# [36] = molecular target: Neu5Ac(a2-3)Gal(b1-4)GlcNAc(b1-3)Gal(b1-4)GlcNAc(b1-2)Man(a1-3)[Neu5Ac(a2-3)Gal(b1-4)GlcNAc(b1-3)Gal(b1-4)GlcNAc(b1-2)Man(a1-6)]Man(b1-4)GlcNAc(b1-4)GlcNAc
# In short: as §1
# [37] = molecular target: Neu5Ac(a2-3)Gal(b1-4)GlcNAc(b1-3)Gal(b1-4)GlcNAc(b1-3)Gal(b1-4)GlcNAc
# In short: as §1
# [38] = molecular target: Neu5Ac(a2-3)Gal(b1-4)GlcNAc(b1-3)Gal(b1-4)GlcNAc(b1-3)Gal(b1-4)GlcNAc(b1-2)Man(a1-3)[Neu5Ac(a2-3)Gal(b1-4)GlcNAc(b1-3)Gal(b1-4)GlcNAc(b1-3)Gal(b1-4)GlcNAc(b1-2)Man(a1-6)]GalNAc
# In short: as §1
# [39] = molecular target: Neu5Ac(a2-3)Gal(b1-4)GlcNAc(b1-3)Gal(b1-4)GlcNAc(b1-3)GalNAc
# In short: as §1
# [40] = molecular target: Neu5Ac(a2-3)Gal(b1-4)GlcNAc(b1-3)Gal(b1-4)GlcNAc(b1-3)[Neu5Ac(a2-3)Gal(b1-4)GlcNAc(b1-3)Gal(b1-4)GlcNAc(b1-6)]GalNAc
# In short: as §1
# [41] = molecular target: Neu5Ac(a2-3)Gal(b1-4)GlcNAc(b1-3)Gal(b1-4)GlcNAc(b1-6)[Gal(b1-3)]GalNAc
# In short: as §1
# [42] = molecular target: Neu5Ac(a2-3)Gal(b1-4)GlcNAc(b1-3)Gal(b1-4)[Fuc(a1-3)]GlcNAc
# In short: as §1
# [43] = molecular target: Neu5Ac(a2-3)Gal(b1-4)GlcNAc(b1-3)GalNAc
# In short: as §1
binder,measurement,setting,value
"CFEM-CGl (Candida glabrata), Q6FRS0 (protein) VLATPPACLLACVAQVSKQSSQCHTLNQVGCFCENENTAIKNCLDSICPNGNSDAAYTAFKNSCGDVGKAVASV",glycan array binding signal (z-score),Neu5Ac(a2-3)Gal,-0.268
same,glycan array binding signal (z-score),[1],-0.016
same,glycan array binding signal (z-score),[2],-0.144
same,glycan array binding signal (z-score),[3],-0.129
same,glycan array binding signal (z-score),[4],-0.372
same,glycan array binding signal (z-score),[5],0.752
same,glycan array binding signal (z-score),[6],-0.015
same,glycan array binding signal (z-score),[7],-0.203
same,glycan array binding signal (z-score),[8],-0.289
same,glycan array binding signal (z-score),[9],-0.352
same,glycan array binding signal (z-score),[10],-0.33
same,glycan array binding signal (z-score),[11],-0.343
same,glycan array binding signal (z-score),[12],-0.212
same,glycan array binding signal (z-score),[13],-0.02
same,glycan array binding signal (z-score),[14],-0.15
same,glycan array binding signal (z-score),[15],-0.154
same,glycan array binding signal (z-score),[16],-0.12
same,glycan array binding signal (z-score),[17],0.386
same,glycan array binding signal (z-score),[18],-0.285
same,glycan array binding signal (z-score),[19],0.035
same,glycan array binding signal (z-score),[20],0.171
same,glycan array binding signal (z-score),[21],-0.266
same,glycan array binding signal (z-score),[22],-0.556
same,glycan array binding signal (z-score),Neu5Ac(a2-3)Gal(b1-4)Glc,0.018
same,glycan array binding signal (z-score),[23],-0.369
same,glycan array binding signal (z-score),[24],0.827
same,glycan array binding signal (z-score),[25],-0.143
same,glycan array binding signal (z-score),[26],-0.517
same,glycan array binding signal (z-score),[27],-0.447
same,glycan array binding signal (z-score),[28],-0.682
same,glycan array binding signal (z-score),[29],-0.43
same,glycan array binding signal (z-score),[30],-0.2
same,glycan array binding signal (z-score),[31],-0.016
same,glycan array binding signal (z-score),[32],-0.394
same,glycan array binding signal (z-score),[33],-0.438
same,glycan array binding signal (z-score),[34],-0.156
same,glycan array binding signal (z-score),[35],-0.225
same,glycan array binding signal (z-score),[36],0.024
same,glycan array binding signal (z-score),[37],-0.472
same,glycan array binding signal (z-score),[38],2.18
same,glycan array binding signal (z-score),[39],-0.518
same,glycan array binding signal (z-score),[40],0.315
same,glycan array binding signal (z-score),[41],0.005
same,glycan array binding signal (z-score),[42],-0.122
same,glycan array binding signal (z-score),[43],-0.476
